Several values for one entry are separate records, joined by “and”; a condition that tells them apart may be missing. Equal values may be shown once. Among all 420,000 compounds or so, about 64,000 (15%) were called active. This list was built around the results that the source calls inconclusive (neither active nor inactive); the mix of calls is not that of the screen. Calls follow the shape of the dose curve; as a rule, active = well fitted inhibition curve with a large enough effect; inconclusive = small, poorly fitted or top-dose-only effect; inactive = flat fitted curve, though single readings scatter. Potencies of inconclusive entries are left out as doubtful fits.
Assay: qHTS for Inhibitors of human tyrosyl-DNA phosphodiesterase 1 (TDP1): qHTS in cells in absence of CPT; also: nearly all actives have a fitted effect of over 55% in size
Details: DT40 Tdp1-/- hTDP1 cells, no CPT, ATP luminescence, 48 h; activity change, negative = growth inhibition: at 46.2 µM (top of the series) unless noted
Procedure, shortened: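 Compound effects on proliferation are scored in DT40 Tdp1-/-;hTDP1 cells in the absence of CPT. ATP levels (CellTiter-Glo luminescence) are recorded after a ≥48 hr, 37 °C incubation.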
For `N#Cc1ccccc1S(=O)(=O)N1CCN(C(=O)C2CCCC2)CC1`, the Potency was “inactive”. With `COc1ccc(S(=O)(=O)NCc2cccn2Cc2cccc(C)c2)cc1Cl` the Potency was inconclusive [inhibitor, single point]. For `COc1ccc(-n2c(=O)[nH]c3c(C(N)=O)nc(C4CCCCC4)nc32)cc1`, the Potency was inconclusive [inhibitor, single point]. For `Cc1cccc(N2C(=O)N3[C@H](c4ccc(Br)cc4)[C@@H]4C(=O)N(C(C)(C)C)C(=O)[C@@H]4[C@]3(C)C2=O)c1`, the Potency was inconclusive [inhibitor, single point]. For `CCc1ccc(C2CC(=O)c3c([nH]c(C(=O)OC4CCC(C)CC4)c3C)C2)cc1` (stereo not given), the Potency was inconclusive [inhibitor, partial curve]. With `CC(C)(C)c1cc(C(=O)N/N=C/c2ccc([N+](=O)[O-])s2)n[nH]1` the Potency was active: 11.6 µM. In the case of `COc1ccc(OC)c(S(=O)(=O)N2Cc3ccccc3CC2C(=O)Nc2ccc(C)cc2C)c1` (stereo not given), the Potency is reported as inconclusive [inhibitor, single point]. With `CCCCCCNC(=O)O[C@H]1Cn2c(=O)ccc(=O)n2[C@@H]2CN(S(=O)(=O)c3ccc(C)cc3)C[C@]12O` the Potency was active: 3.66 µM. In the case of `CCS(=O)(=O)N1CCc2cc(C(=O)N3CCN(c4ccc(OC)cc4)CC3)ccc21`, the Potency is reported as inconclusive [inhibitor, single point]. For `Cc1ccc(NC(=O)CSc2nnc(Cc3ccccc3)c(=O)[nH]2)c(C)c1`, the activity change, negative = growth inhibition was inconclusive: -34.3% [inhibitor]. For `COc1ccc(-c2nc(SCC(=O)Nc3ccccc3)c(-c3ccc(F)cc3)[nH]2)cc1OC`, the Potency was inconclusive [inhibitor, single point]. For `CCCC(=O)Nc1ccc(NC(=O)c2cc3ccccc3o2)c(OC)c1`, the Potency was inconclusive [inhibitor, single point]. For `COc1cccc(N2CC(C(=O)Nc3c(C(N)=O)oc4ccccc34)CC2=O)c1` (stereo not given), the Potency was inconclusive [inhibitor, single point]. For `CC1CCc2c(C(=O)Nc3ccc(N4CCOCC4)cc3)csc2C1` (stereo not given), the Potency was inconclusive [inhibitor, single point]. In the case of `CC1Cc2ccccc2N1C(=O)C1CCCN1S(=O)(=O)c1ccc(Cl)cc1` (stereo not given), the Potency is reported as inconclusive [inhibitor, single point]. For `COc1ccc(S(=O)(=O)N(C)[C@H]2C[C@H]3c4cc(Oc5ccccc5C)ccc4CCN3C(=O)[C@H]2[C@H](C)O)cc1`, the Potency was active: 6.51 µM. With `Cc1ccc(NC(=O)Cn2c(=O)cnc3ccccc32)cc1S(=O)(=O)N(C)C` the Potency was inconclusive [inhibitor, single point]. For `CCOC(=O)C1=C(COC(=O)C2(C)CC2(Cl)Cl)NC(=O)NC1c1ccc(OC)cc1` (stereo not given), the Potency was inconclusive [inhibitor, partial curve]. In the case of `Cc1c(CCOC(=O)CC23CC4CC(CC(C4)C2)C3)sc[n+]1CC(=O)c1ccc(Br)cc1`, the Potency is reported as active: 25.9 µM. With `COc1cccc(-c2nccc(NCc3cccs3)n2)c1` the Potency was inconclusive [inhibitor, single point]. For `Cc1ccc(CN2CCC(CNC(=O)c3cnn(-c4ccccc4)c3C3CCN(C(=O)OC(C)(C)C)CC3)CC2)cc1`, the Potency was active: 14.6 µM. In the case of `Cc1ccc(NC(=O)CSc2nnc(CNC(=O)c3cccs3)o2)c(C)c1`, the Potency is reported as “inactive”. For `CC1(C(=O)Nc2ccccc2Cc2ccccc2)CCN1CCc1ccccc1` (stereo not given), the Potency was inconclusive [inhibitor, single point]. With `CC(Oc1ccc(F)cc1)C(=O)Nc1ccccc1C(=O)N1CCCCC1` (stereo not given) the Potency was inconclusive [inhibitor, single point]. For `CCCC(=O)Nc1sc2c(c1C#N)CCCC2`, the Potency was inconclusive [inhibitor, partial curve, poor fit]. For `O=C(CS(=O)(=O)Cc1ccccc1)N1CCN(Cc2ccc3c(c2)OCO3)CC1`, the Potency was inconclusive [inhibitor, single point]. For `COCCn1c(=O)[nH]c2cc(C(=O)N3CCN(c4ccc(Cl)cc4)CC3)ccc2c1=O`, the Potency was active: 7.31 µM and active: 6.51 µM. With `COc1ccc(CC(N)c2csc(Nc3cc(NCCCO)ncn3)n2)cc1` (stereo not given) the Potency was inconclusive [inhibitor, single point]. In the case of `CN(CCCNC(=O)c1cc2c(=O)[nH]c3ccccc3c2n1C)Cc1ccccc1`, the Potency is reported as inconclusive [inhibitor, single point]. For `Cc1nc2sc(C(N)=O)c(N)c2c(C)c1CC(=O)c1ccccc1`, the Potency was inconclusive [inhibitor, full curve, poor fit]. In the case of `CCc1nc2nc(C)c(NS(=O)(=O)c3ccc(Cl)s3)c(=O)n2[nH]1`, the Potency is reported as “inactive”. In the case of `CCCC(=O)Nc1ccc(C(=O)n2nnc3ccccc32)cc1`, the Potency is reported as inconclusive [inhibitor, single point]. With `COc1ccc(-c2nc3ccc(Cl)cn3c2Cc2cccc(Cl)c2)cc1OC` the Potency was inconclusive [inhibitor, single point]. For `Cc1ccc(NC(=O)c2sc(N)nc2-c2ccc([N+](=O)[O-])cc2)c(C)c1`, the Potency was inconclusive [inhibitor, single point]. With `Cc1ccc2nc(NC(=O)c3nc(SCc4ccccc4F)ncc3Cl)sc2c1` the Potency was “inactive”. In the case of `COc1ccc(C(=O)N/N=C(\N)c2cc3ccccc3oc2=O)cc1`, the Potency is reported as inconclusive [inhibitor, single point]. For `COc1ccc(C)cc1N(CC(=O)NCCSCc1cccc(Cl)c1)S(C)(=O)=O`, the Potency was inconclusive [inhibitor, single point]. In the case of `COc1ccc(NC(=O)c2cc(C(C)=O)n3ccccc23)cc1`, the Potency is reported as inconclusive [inhibitor, single point]. For `COc1cccc(-c2noc(CCC(=O)Nc3cccnc3)n2)c1`, the Potency was inconclusive [inhibitor, single point]. With `Cc1ccc2c(c1)C(=O)C(=O)N2Cc1ccc(OCCC(C)C)cc1` the Potency was active: 0.411 µM.

From PubChem BioAssay AID686978 (National Center for Advancing Translational Sciences (NCATS), 2013)
% is scaled to controls: 0 for no effect and ±100 for the full control effect; potency is read from the fitted curve at half-maximal effect; tags tell the direction and shape of the fitted curve.
